Test results published in ChEMBL document CHEMBL1157539, “Thousands of chemical starting points for antimalarial lead identification” (Nature, 2010).
“And” between values parts separate entries of the source, which are not always exact repeats. Identical values can stand only once. Whole data set: some 13,000 compounds, median “IFI” near 4, cut for the highest 2% near 17. Some of the results follow.

assay: GSK_TCMDC: Inhibition Frequency Index (IFI). The number of non-kinase HTS assays where a compound showed > 50 % inhibition, expressed as a percentage of the number of such assays in which the compound was tested (-0 is zero); type: functional

Row | Structure (SMILES) | IFI
1 | CC(C)n1ncc2c(C(=O)Nc3ccc(C#N)c(Cl)c3)cc(C3CC3)nc21 | 2.78%
2 | C=CCOc1ccccc1CNCC(O)c1cccc(C(F)(F)F)c1 (stereo not given) | 1.56%
3 | CCN(CC)CCN1C(=O)C(O)(c2ccccc2Cl)c2c1cc(C#N)cc2C(F)(F)F (stereo not given) | 2.26%
4 | COc1cc(C=CC(=O)N2CCC(CN3CCC(c4c[nH]c5ccccc45)CC3)CC2)cc(OC)c1 | 4.32%
5 | Cc1ccc(CC(C)NC[C@H](O)c2cccc(Cl)c2)cc1 (stereo not given in full) | 4.38% and 0.72%
6 | O=[N+]([O-])c1ccc(Oc2c(Cl)cc(S(=O)(=O)NC3CCC(CN4CCC(c5c[nH]c6ccccc56)CC4)CC3)cc2Cl)c(Cl)c1 (stereo not given) | 7.09%
7 | Cn1nc(C(F)(F)F)cc1-c1ccc(C(=O)NC2CCC(CN3CCC(c4c[nH]c5ccccc45)CC3)CC2)s1 (stereo not given) | 6.16%
8 | COC(=O)c1ccc(CC(C)NCC(O)c2cccc(I)c2)cc1 (stereo not given) | 3.65%
9 | O=C(/C=C/c1ccc(Cl)c(Cl)c1)NC1CCC(CN2CCC(c3c[nH]c4cc(C(F)(F)F)ccc34)CC2)CC1 (stereo not given) | 5.93% and -0%
10 | CC(Cc1ccc(OCCOc2ccccc2)cc1)NCC(O)c1cccc(Cl)c1 (stereo not given) | 6.38%
11 | CC(C)c1ccc(C=CC(=O)NC2CCC(CN3CCC(c4c[nH]c5ccccc45)CC3)CC2)cc1 (stereo not given) | 5.97%
12 | C=C[C@H]1CN2CC[C@H]1C[C@@H]2[C@@H](O)c1ccnc2ccccc12 | 0.73%
13 | CCOC(=O)c1c(C)n(C2CCCCCC2)c2cc(Br)c(O)cc12 | 6.34%
14 | COc1ccc(OC)c(C=CC(=O)NC2CCC(CN3CCC(c4c[nH]c5ccccc45)CC3)CC2)c1 (stereo not given) | 2.96%
15 | CCCCCc1cc(O)c2c(c1)OC(C)(C)c1ccncc1-2 | 0.75%
16 | CC[C@H]1CN2CC[C@@H]1C[C@H]2[C@H](O)c1cc(N2CCC(c3ccccc3)CC2)nc2ccc(OC)cc12 | 7.52%
17 | CN(C)c1cccc(CCNCCc2c[nH]c3ccc(Cl)cc23)c1 | 10.4%
18 | C[C@H](Cc1ccc(OCCCCCCOc2ccccc2)cc1)NC[C@@H](O)c1cc(Br)no1 | 13.5%
19 | CCCCCCCN1C2CCC1CC(CCOc1ccnc3ccc(OC)cc13)C2 (stereo not given) | 4.51%
20 | CN1CC=C(c2c[nH]c3ccc(C(=O)c4nccs4)cc23)CC1 | -0%
21 | O=C(Nc1ccccc1C(F)(F)F)NC1CCC(CN2CCC(c3c[nH]c4ccccc34)CC2)CC1 (stereo not given) | 4.29% and 2.14%
22 | C=C[C@H]1CN2CC[C@H]1C[C@H]2[C@H](O)c1ccnc2ccccc12 | -0%
23 | CCc1nc(N)nc(N)c1-c1cccc(Cl)c1 | 1.5%

Row | Structure (SMILES) | IFI
24 | CCCc1cc(O)c2c3c(c(=O)oc2c1)CN(C)CC3 | -0%
25 | Cc1ccc(-n2nc(C)c3c2NC(=O)CSC3c2ccsc2)cc1 (stereo not given) | -0%
26 | CC(=O)Nc1ccc(OCCN(CC(C)C)c2ccc(C#N)c(C(F)(F)F)c2)c(Cl)c1 | 0.97%
27 | CCCCCc1cc(O)c2c3c(c(=O)oc2c1)CN(C)CC3 | 2.14%
28 | O=C(NCc1ccccc1)c1nn(CCCN2CCC3(CC2)C(=O)NCN3c2ccccc2)cc1-c1ccc(Cl)c(Cl)c1 | 24.3%
29 | COc1ccccc1CNCC(O)c1cc(C(F)(F)F)ccc1C(F)(F)F (stereo not given) | 0.82%
30 | O=C(/C=C/c1ccc(Cl)c(Cl)c1)N1CCC(CN2CCC(c3c[nH]c4cc(C(F)(F)F)ccc34)CC2)CC1 | 2.14%
31 | O=C1Nc2cccc3c2C1(CCCCCN1CC=C(c2c[nH]c4ccccc24)CC1)CCC3 (stereo not given) | 0.74%
32 | O=C(/C=C/c1ccc(Cl)c(Cl)c1)N1CCC(CN2C3CCC2CC(c2c[nH]c4ccccc24)C3)CC1 (stereo not given) | 5.93%
33 | CC(=O)C1(c2ccccc2)CCN(CCC2(c3ccc(Cl)c(Cl)c3)CN(C(=O)C3CCCCC3)CCO2)CC1 (stereo not given) | 7.28%
34 | O=C(NC1CCC(CN2CCC(c3c[nH]c4ccccc34)CC2)CC1)c1cc(-c2ccc(F)cc2F)ccc1O (stereo not given) | 1.52%
35 | CN(Cc1ccccc1)C1CCN(CCc2c[nH]c3ccc(F)cc23)CC1 | 2.13%
36 | O=C(NC1CCC(CN2CCC(c3c[nH]c4ccccc34)CC2)CC1)c1cc(-c2ccccc2Cl)n(-c2cccc(Cl)c2)n1 (stereo not given) | 8.11%
37 | CN1CCC(O)(c2ccc(Br)cc2)C(C(O)c2ccc(Br)cc2)C1 (stereo not given) | 3.55%
38 | N#Cc1ccc(N(CCCO)Cc2ccccc2C(F)(F)F)cc1C(F)(F)F | 3.55%
39 | COc1cc(/C=C/C(=O)NC2CCC(CN3CCC(c4c[nH]c5ccccc45)CC3)CC2)ccc1O (stereo not given) | 5.67% and 7.04%
40 | CN1CC=C(c2c[nH]c3ccc(Oc4ccccc4)cc23)CC1 | 3.68%
41 | CC(C)N(C)C(=O)n1cnc(S(=O)(=O)C2CC3CCC2C3)n1 (stereo not given) | 2.76%
42 | COc1cccc(C2(NC[C@@H](O)[C@H](Cc3ccccc3)NC(=O)c3ccccc3)CCCCC2)c1 | 6.57%
43 | CNCC(O)c1cc(Cl)c(Cl)cc1C (stereo not given) | -0%
44 | COc1cccc(CN2CCC(CCOC(c3ccccc3)c3ccccc3)CC2)c1O | 3.1%
45 | O=C(C=Cc1cccc(Cl)c1Cl)NC1CCC(CN2CCC(c3c[nH]c4ccccc34)CC2)CC1 (stereo not given) | 2.24% and 6.67%
46 | Fc1ccc(N(c2nc(-c3cc(F)cc(C(F)(F)F)c3)cs2)C2CCNCC2)cc1 | 17.1%

Row | Structure (SMILES) | IFI
47 | O=C(/C=C/c1ccc(Cl)c(Cl)c1)NCC1CCCC(CN2CCC(c3c[nH]c4ccccc34)CC2)C1 (stereo not given) | 6.38%
48 | CC(NC(C)(C)C)C(O)c1ccc(Cl)c(C(F)(F)F)c1 (stereo not given) | 0.77%
49 | COc1ccc(OC)c(C(O)CNC(C)C)c1 (stereo not given) | -0%
50 | CC(C)(C)c1ccc(Cn2nc(C(=O)N3CCN(C(=O)C4CCCO4)CC3)c3ccccc32)cc1 (stereo not given) | 2.13%
51 | O=C(/C=C/c1c(Cl)cccc1Cl)NC1CCC(CN2CCC(c3c[nH]c4ccccc34)CC2)CC1 (stereo not given) | 7.3% and 6.02%
52 | CCCCCCCc1cc(O)c2c(c1)OC(C)(C)c1ccncc1-2 | 0.72%
53 | CNC(=O)c1ccc2[nH]cc(C3CCN(CC4CCC(NC(=O)/C=C/c5ccc(Cl)c(Cl)c5)CC4)CC3)c2c1 (stereo not given) | 0.75%
54 | CC(C)CNCc1ccc(-c2ccc(CN(C(=O)Nc3ccccc3)C3CCN(Cc4ccccc4)CC3)cc2)cc1 | 4.93%
55 | C[C@H](Cc1ccc(OCCCCCCOc2ccccc2)cc1)NC[C@H](O)c1cccc(Cl)c1 | 7.64%
56 | CN(C)CCC(=O)c1ccccc1 | 0.73%
57 | CC[C@H]1CN2CC[C@H]1C[C@@H]2[C@@H](O)c1ccnc2ccc(OC)cc12 | -0%
58 | NCC(=O)c1cc2c(cc1N)OCCO2 | 3.57%
59 | COc1ccc(C=CC(=O)NC2CCC(CN3CCC(c4c[nH]c5ccccc45)CC3)CC2)cc1OC (stereo not given) | 5.8% and 3.7%
60 | CC(Cc1ccc(OCCOc2ccccc2)cc1)NCC(O)c1cccc(C(F)(F)F)c1 (stereo not given) | 2.9%
61 | CC[C@H]1CN2CC[C@@H]1C[C@H]2[C@H](O)c1cc(-c2ccc(Cl)c(Cl)c2)nc2ccc(O)cc12 | 3.65%
62 | COC(=O)c1ccc(CC(C)NCC(O)c2cc(Cl)c(N)c(Cl)c2)cc1 (stereo not given) | 2.78%
63 | CCOC(=O)c1c(CN2CCN(C)CC2)n(Cc2ccccc2)c2cc(Br)c(O)cc12 | 5.56%
64 | C/C=C1/CN2CC[C@H]1C[C@H]2[C@H](O)c1ccnc2ccc(O)cc12 | 0.8%
65 | O=C(NC1CCC(CN2CCC(c3c[nH]c4ccccc34)CC2)CC1)c1cnn(-c2ccccc2)c1-c1ccccc1Cl (stereo not given) | 8.78%
66 | COc1coc(C(=O)NC2CCN(CC3(c4ccc(Cl)cc4)CCC3)CC2)c1OC | 7.14%
67 | O=C(/C=C/c1ccc(Cl)c(Cl)c1)NCC1CCC(N2CCC(c3c[nH]c4ccccc34)CC2)CC1 (stereo not given) | 6.43%
68 | CN1CC[C@H](N(Cc2ccccc2F)c2ccc(C#N)c(Cl)c2)C1 | 5.41%
69 | CN(c1cc(NC(=O)c2cccs2)ccn1)C1CCN(Cc2cccc(F)c2)CC1 | 5.88%

Row | Structure (SMILES) | IFI
70 | O=C(NC1CCC(CN2CCC(c3c[nH]c4ccccc34)CC2)CC1)[C@H]1Cc2ccccc2CN1 (stereo not given in full) | 5.71%
71 | O=C(NC1CCC(CN2CCC(c3c[nH]c4ccccc34)CC2)CC1)c1ccc(-c2cc(C(F)(F)F)ccc2Cl)o1 (stereo not given) | 1.46%
72 | Oc1ccc2[nH]cc(C3=CCN(CCc4ccccc4)CC3)c2c1 | 2.24%
73 | S=C(NCCc1ccc(Cl)cc1)N1CCC(CN2CCC(c3c[nH]c4ccccc34)CC2)CC1 | 6.38%
74 | CC(Cc1ccc(OCc2ccc(CCN(C)C)cc2)cc1)NCCc1cccc(Cl)c1 (stereo not given) | 5.84%
75 | Cc1[nH]c2ccc(O)cc2c1C1CCN(CC2CCC(NC(=O)/C=C/c3c(Cl)cccc3Cl)CC2)CC1 (stereo not given) | 1.47%
76 | O=C(NC1CCC(CN2CCC(c3c[nH]c4ccccc34)CC2)CC1)c1[nH]c(=O)[nH]c(=O)c1F (stereo not given) | 0.77%
77 | COc1ccc(F)cc1-c1csc(N(c2ccc(F)cc2)C2CCNCC2)n1 | 14.4%
78 | CC(=O)Nc1ccc2[nH]cc(C3CCN(CC4CCN(C(=O)/C=C/c5ccc(Cl)c(Cl)c5)CC4)CC3)c2c1 | 1.46%
79 | C=C1C2CC(=O)O[C@@H]3C[C@H]4C(C)=CC(=O)[C@@H](O)[C@]4(C)[C@H]4[C@](O)(OC[C@]234)[C@H]1O (stereo not given in full) | 6.11%
80 | COc1ccc2[nH]cc(C3=CCN(Cc4ccccc4)CC3)c2c1 | 1.54%
81 | CC[C@H]1CN2CC[C@@H]1C[C@H]2[C@H](O)c1cc(N2CCC(CO)CC2)nc2ccc(OC)cc12 | -0%
82 | CC(Cc1ccc(NC(=O)CCNCc2ccccc2)cc1)NCCc1cccc(Cl)c1 (stereo not given) | 32.4%
83 | CCOC(=O)c1c(C)n(C2CCCCC2)c2cc(Br)c(O)cc12 | 3.45%
84 | Cc1cccc(C(=O)Nc2ccnc(N(C)C3CCN(Cc4cccc(O)c4)CC3)c2)c1 | 7.5%
85 | Cc1c(C)c2c(c(C)c1O)CC[C@](C)(C(=O)N1CCC(CN3CCC(c4c[nH]c5ccccc45)CC3)CC1)O2 | 9.92%
86 | CN(c1ccc(NC(=O)CCOc2ccccc2)cc1)C1CCN(Cc2cccc(O)c2)CC1 | 9.76%
87 | Cc1ccc(CC(C)NCC(O)c2cccc(C(F)(F)F)c2)c(C)c1 (stereo not given) | 5.97%
88 | CC(=O)N(Cc1ccccc1-c1cccc(CNCc2ccc3c(c2)OCO3)c1)C1CCN(Cc2ccccc2)CC1 | 5.26%
89 | COCCNCc1cccc(-c2ccccc2CN(C(=O)Nc2ccccc2)C2CCN(Cc3ccccc3)CC2)c1 | 5.84%
90 | COC(=O)c1ccc(CC(C)NCC(O)c2ccc(Cl)c(Cl)c2)cc1 (stereo not given) | 3.65%
